Assay results taken from PubChem BioAssay AID588342 (National Center for Advancing Translational Sciences (NCATS), 2011).
Out of some 360,000 compounds screened, about 25,000 (6.9%) were called active. Inconclusive results, whose numbers are uncertain, are shown with a selection of clear calls. Calls come from the whole dose curve; as a rule, active = well fitted inhibition curve with a large enough effect; inconclusive = small, poorly fitted or top-dose-only effect; inactive = flat fitted curve, though single readings scatter. Potencies of inconclusive entries are doubtful fits and often do not repeat.
Note: nearly all actives have a fitted effect of over 55% in size.
Potency is the fitted concentration of half-maximal effect; tags give direction and shape of the fitted curve.

What follows are compounds tested against Luciferin 4-monooxygenase (Photinus pyralis) (UniProt P08659) (assay: qHTS profiling assay for firefly luciferase inhibitor/activator using purifed enzyme and Km concentrations of substrates (counterscreen for miR-21 project)). Conditions: purified FLuc, luminescence inhibition; series mostly up to 57.5 µM.
Sequence of UniProt P08659 (P08659 whole entry, looked up): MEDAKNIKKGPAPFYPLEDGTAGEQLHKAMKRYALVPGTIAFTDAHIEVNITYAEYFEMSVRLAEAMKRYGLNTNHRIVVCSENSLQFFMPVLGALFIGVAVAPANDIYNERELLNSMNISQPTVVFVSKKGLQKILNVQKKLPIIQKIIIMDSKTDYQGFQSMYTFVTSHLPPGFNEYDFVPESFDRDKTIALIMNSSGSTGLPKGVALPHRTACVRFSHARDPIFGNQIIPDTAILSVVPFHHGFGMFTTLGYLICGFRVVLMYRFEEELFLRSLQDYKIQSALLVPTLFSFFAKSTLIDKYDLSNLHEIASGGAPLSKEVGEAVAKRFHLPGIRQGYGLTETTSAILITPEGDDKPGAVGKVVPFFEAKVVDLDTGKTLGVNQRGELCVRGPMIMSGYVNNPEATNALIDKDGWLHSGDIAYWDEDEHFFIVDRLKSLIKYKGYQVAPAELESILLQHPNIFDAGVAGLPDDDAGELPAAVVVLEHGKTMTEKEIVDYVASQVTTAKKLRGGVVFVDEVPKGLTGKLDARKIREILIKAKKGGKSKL
Summary of the method: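 Biochemical qHTS of compounds, final roughly 60 µM downward over six points, against 10 nM purified firefly luciferase using Km concentrations of substrates (10 uM D-luciferin, 10 uM ATP) in Tris acetate pH 7.5 buffer; luminescence output.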
In the case of `CN(C)C(=O)c1nc2ccccc2s1`, the Potency is reported as inconclusive: 21.3 µM [inhibitor, partial curve, poor fit].
In the case of `CCOC(=O)c1c(C)nc2c(c1-c1ccccc1)C(=O)CCC2`, the Potency is reported as “inactive”.
For `Nc1ccc2oc3ccccc3c2c1`, the Potency was inconclusive: 37.9 µM [inhibitor, partial curve, poor fit].
With `Cc1cc(C)n(CC(C)NC(=O)c2cc(COc3ccc(F)c(F)c3)on2)n1` (stereo unspecified) the Potency was inconclusive: 19 µM [inhibitor, partial curve].
In the case of `O=C(NCC1CCCN1S(=O)(=O)c1cccs1)c1cccc(F)c1` (stereo unspecified), the Potency is reported as “inactive”.
`CCCn1ccc2c(OCC(=O)Nc3ccc(C(F)(F)F)cc3)cccc2c1=O` was tested, and the Potency was “inactive”.
`O=C(N/N=C\c1cccnc1)c1ccc(Cl)cc1Cl` was tested, and the Potency was inconclusive: 21.3 µM [inhibitor, partial curve].
`Cc1ccc(-c2cc(C(=O)Nc3cc(C)on3)c3ccccc3n2)c(C)c1` was tested, and the Potency was inconclusive: 26.9 µM [inhibitor, partial curve, poor fit].
In the case of `COc1ccc(NC(=O)CSc2n[nH]c(-c3ccccc3)n2)cc1Cl`, the Potency is reported as inconclusive: 26.9 µM [inhibitor, partial curve].
For `CN(c1ccccc1)S(=O)(=O)c1cc(C(=O)N2CCN(c3ccccn3)CC2)ccc1Cl`, the Potency was “inactive”.
With `O=C(O)c1ccc(CNC(=O)c2ccc(C(F)(F)F)cc2)cc1` the Potency was inconclusive: 37.9 µM [inhibitor, partial curve, poor fit].
For `O=C(/C=C/c1ccccc1)Nc1nc(-c2cccs2)ns1`, the Potency was “inactive”.
In the case of `CC(=O)Nc1cccc(Oc2cnc3ccccc3n2)c1`, the Potency is reported as inconclusive: 30.1 µM [inhibitor, partial curve, poor fit].
With `N#Cc1nc(-c2ccc(F)cc2)oc1NCc1ccco1` the Potency was inconclusive: 37.9 µM [inhibitor, partial curve, poor fit].
`COc1ccc(-c2cc3ccccc3oc2=O)cc1NC(=O)c1cccnc1` was tested, and the Potency was active: 10.7 µM.
For `CCCN(C(=O)Cn1nc(Cc2ccncc2)c2ccccc2c1=O)c1ccccc1C`, the Potency was “inactive”.
For `Cc1ccc(Nc2nnc(SCC(=O)c3cc4ccccc4o3)s2)cc1C`, the Potency was inconclusive: 33.8 µM [inhibitor, partial curve, poor fit].
`COc1ccccc1C(=O)C1CCCN(C(=O)c2ccccc2C(C)=O)C1` (stereo unspecified) was tested, and the Potency was inconclusive: 37.9 µM [inhibitor, single point].
With `O=C(CCCN=C1NS(=O)(=O)c2ccccc21)OCC(=O)c1ccccc1` the Potency was inconclusive: 26.9 µM [inhibitor, partial curve, poor fit].
In the case of `CCc1ccc2c(c1)C1(C(=O)N2)N2CCCC2C(C(=O)c2ccc3ccccc3c2)C12C(=O)Nc1ccccc12` (stereo unspecified), the Potency is reported as inconclusive: 23.9 µM [inhibitor, partial curve].
In the case of `O=C(Nc1ccc(N2CCCCC2)cc1)c1ccc([N+](=O)[O-])o1`, the Potency is reported as active: 1.51 µM.
In the case of `O=C(Nc1ccc(F)c(Cl)c1)N1CCCCCC1`, the Potency is reported as inconclusive: 30.1 µM [inhibitor, single point].
With `CCOc1ccccc1C1Nc2ccccc2-c2nnc(SCc3ccccc3)nc2O1` (stereo unspecified) the Potency was inconclusive: 30.1 µM [inhibitor, single point].
For `COc1ccccc1/C=C(\NC(=O)c1ccc(OC)c(OC)c1)C(=O)Nc1cccc([N+](=O)[O-])c1`, the Potency was “inactive”.
`CCn1c(SCC(=O)c2ccc3ccccc3c2)nnc1-c1cccs1` was tested, and the Potency was inconclusive: 19 µM [inhibitor, partial curve, poor fit].
`COc1ccc(Nc2cc(C(=O)NCCCN(C)C3CCCCC3)c3ccccc3n2)cc1` was tested, and the Potency was “inactive”.
In the case of `O=C(CCc1ccccc1)Nc1ccccc1[N+](=O)[O-]`, the Potency is reported as inconclusive: 26.9 µM [inhibitor, partial curve].
For `Cc1nc(S(=O)(=O)Cc2ccc(Cl)cc2)nc2c1CCC2`, the Potency was “inactive”.
In the case of `CN(CC(=O)Nc1cccc(F)c1)C(=O)COc1cccc2c1OC(C)(C)C2`, the Potency is reported as “inactive”.
For `CCOC(=O)c1sc(NC(=O)Nc2ccccc2F)nc1C`, the Potency was active: 0.169 µM.
`COc1cccc(NC(=O)NC(C)C2CC3CCC2C3)c1` (stereo unspecified) was tested, and the Potency was inconclusive: 37.9 µM [inhibitor, single point].
`Cc1ccc(-c2nc(NCc3cccnc3)c3ccccc3n2)cc1` was tested, and the Potency was inconclusive: 26.9 µM [inhibitor, single point].
For `c1ccn(-c2ccc(-c3ccn[nH]3)cc2)c1`, the Potency was active: 10.7 µM.
In the case of `CCOc1ccc(-c2cc(CCCC(=O)NCCc3ccc(OC)c(OC)c3OC)no2)cc1`, the Potency is reported as inconclusive: 8.49 µM [inhibitor, partial curve].
`C=CCn1c(SCC(=O)c2c(C)[nH]c3ccccc23)nnc1-c1ccncc1` was tested, and the Potency was “inactive”.
`O=C(Nc1ncc([N+](=O)[O-])s1)C1COc2ccccc2O1` (stereo unspecified) was tested, and the Potency was active: 21.3 µM.
With `O=C(Cn1cnc2c(oc3ccccc32)c1=O)N1CCCC1` the Potency was inconclusive: 23.9 µM [inhibitor, partial curve, poor fit].
For `CCc1ccccc1NC(=O)c1ccc2[nH]c(C)c(C)c2c1`, the Potency was inconclusive: 8.49 µM [inhibitor, partial curve].
With `COc1ccc(-c2cc(-c3cccs3)c(C#N)c(SCC(=O)NCc3ccco3)n2)cc1` the Potency was active: 12 µM.
With `O=C(Cc1ccc(-c2ccccc2)cc1)Nc1ccccn1` the Potency was inconclusive: 23.9 µM [inhibitor, single point].
In the case of `COc1ccc(-c2cc(-c3ccc(F)cc3)nc3c2COc2ccccc2-3)cc1`, the Potency is reported as “inactive”.
With `CN(Cc1ccc(F)cc1)C(=O)c1cccc(S(=O)(=O)N2CCN(Cc3ccccc3)CC2)c1` the Potency was “inactive”.
With `O=C(Nc1ccc2nsnc2c1)N1CCCCC1` the Potency was inconclusive: 26.9 µM [inhibitor, single point].
In the case of `COc1ccc(C2=CC(=O)C[C@H](c3ccc(OC)c(OC)c3)C2)cc1`, the Potency is reported as inconclusive: 37.9 µM [inhibitor, partial curve, poor fit].
`O=Cc1ccc(-c2cccc(C(=O)O)c2)o1` was tested, and the Potency was inconclusive: 23.9 µM [inhibitor, partial curve].
For `O=C1NC2=C(CCc3ccccc32)C(c2ccc(Br)cc2)N1` (stereo unspecified), the Potency was inconclusive: 26.9 µM [inhibitor, partial curve, poor fit].
